Where two headings read alike, the source gives them in different places.
Key:
[1] = Circular dichroism (CD) spectroscopy analysis, melting temperature and refolding; format: physicochemical; settings: His6-tagged Z variants, CD variable temperature measurement
[2] = system: TF-1 cells; assay: In vitro IL-1β neutralization assay (TF-1 cell assay); format: cell-based
Description: The TF-1 cell line proliferates in response to many different cytokines including IL-1β. This cell line was used to assess the ability of primary IL-1R1 binders to inhibit IL-1β actions. TF-1 cells were maintained in RPM11640 with L-glutamine (Lonza) supplemented with 10% FCS (Gibco), Penicillin-Streptomycin (Lonza) and 2 ng/ml rhGM-CSF (R&D Systems). Prior to use, cells were washed twice in RPM11640 without rhGM-CSF. Cells were then counted and dispensed into 96 well flat bottomed plates at a density of 3×10^4 cells per well. In separate plates, serial dilutions of the inhibitory binders; His6-tagged IL-1R-I binding Z variants, with a concentration range of 400-0.1 nM, or the IL-1R-I binding protein Kineret (anakinra, Sobi), with a concentration range of 0.3-0.0003 nM, were incubated in the presence of 0.6 nM IL-1β (PeproTech). The pre-mixed complexes of the Z variant polypeptides and IL-13 were transferred to wells containing TF-1 cells. The cells were stimulated for 72 h at 37° C. in a humidified 5% CO2 atmosphere. During the last four hours of incubation, 19 μl of 2× diluted CCK-8 (Fluka, Sigma Aldrich), was added per well to determine the proliferative responses. The absorbance was measured at 450 nm using a microplate reader (Victor3, Perkin Elmer). The data on cell growth was assessed by non-linear regression to a four-parameter dose-response curve, and the half maximal inhibitory concentration (IC50) was determined using GraphPadPrism program.
(§1) His6-tagged IL-1R-I specific Z variants were tested for their inhibitory capacity in the TF-1 cell assay. The assay was run as described in Example 2. The data on cell growth was assessed by non-linear regression to a four-parameter dose-response curve, and IC50 values were determined using GraphPadPrism program. His6-tagged Z12967 was included for comparison.
as §1, with “Z12967, Z16065, Z16163 and Z18557 were” for “Z12967 was”

[3] = target: T1, hIL-1R-I (Homo sapiens, UniProt P14778); assay: Biacore affinity/kinetic analysis of His6-tagged Z variants, human IL-1R-I; format: binding
T1 construct: purchased R&D Systems 269-1R/CF
T1 sequence (P14778 18-569): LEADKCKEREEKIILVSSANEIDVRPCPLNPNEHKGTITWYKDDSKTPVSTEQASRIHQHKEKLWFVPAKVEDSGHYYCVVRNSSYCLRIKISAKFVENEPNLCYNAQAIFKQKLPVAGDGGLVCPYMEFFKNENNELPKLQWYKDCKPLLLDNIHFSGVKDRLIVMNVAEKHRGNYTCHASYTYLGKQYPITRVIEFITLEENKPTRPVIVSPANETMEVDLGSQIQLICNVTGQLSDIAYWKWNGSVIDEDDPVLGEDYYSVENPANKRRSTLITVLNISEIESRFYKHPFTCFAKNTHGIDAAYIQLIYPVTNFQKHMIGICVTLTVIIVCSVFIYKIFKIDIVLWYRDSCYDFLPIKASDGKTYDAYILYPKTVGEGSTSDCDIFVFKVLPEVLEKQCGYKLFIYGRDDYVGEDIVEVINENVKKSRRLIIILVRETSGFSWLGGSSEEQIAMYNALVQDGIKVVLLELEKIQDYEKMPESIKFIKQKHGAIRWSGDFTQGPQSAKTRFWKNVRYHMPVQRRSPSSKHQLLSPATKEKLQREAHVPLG

[4] = His6-Z polypeptides, IL-1β inhibition in TF-1 cell assay, Table 12 (first matured library)
[5] = His6-Z polypeptides, 100, 10 and 1 nM (Example 5)
[6] = His6-Z polypeptides, 100, 10 and 1 nM (Example 5), read-out: KD
[7] = His6-Z polypeptides, IL-1β inhibition in TF-1 cell assay, Table 20 (Example 9)
[8] = His6-Z polypeptides binding to human IL-1R-I, Biacore, Table 19
[9] = His6-Z polypeptides binding to human IL-1R-I, Biacore, Table 19, read-out: KD

| Substance | IC50 [2, 4] | koff [3, 5] | kon [3, 5] | Kd [3, 6] | IC50 [2, 7] | koff [3, 8] | kon [3, 8] | Kd [3, 9] | IC50 ([2]; His6-tagged, TF-1 cell assay, comparison variants (Example 9)) | Kd ([3]; His6-tagged, 48, 12, 3 and 0.75 nM, comparison variants (Example 9), read-out: KD to human IL-1R-I) | Melting temperatures (Tm) ([1]; Table 13) | Melting temperatures (Tm) ([1]; Table 21) |
| --- | --- | --- | --- | --- | --- | --- | --- | --- | --- | --- | --- | --- |
| Z15975: IL-1R-I binding Z variant (VDAKYAKEVETAQMEIFVLPNLTRKQYTAFIRKLLDDPSQSSELLSEAKKLNDSQAPK; Engineered IL-1R-I binding polypeptide) | – | – | – | – | 3.3 nM | 0.029 s⁻¹ | 4.1e+07 M⁻¹ s⁻¹ | 0.71 nM | – | – | – | 59 °C |
| Z16116: IL-1R-I binding Z variant (VDAKYAKEVEAAQMEIFGLPNLTRKQYTAFIRKLLDDPSQSSELLSEAKKLNDSQAPK; Engineered IL-1R-I binding polypeptide) | 4.1 nM | 0.0023 s⁻¹ | 2.6e+06 M⁻¹ s⁻¹ | 0.88 nM | – | – | – | – | – | – | 59 °C | – |
| Z16117: IL-1R-I binding Z variant (VDAKYAKEIEKAQFEIFALPNLTRKQYTAFIRKLFDDPSQSSELLSEAKKLNDSQAPK; Engineered IL-1R-I binding polypeptide) | 8.5 nM | 0.0027 s⁻¹ | 4e+06 M⁻¹ s⁻¹ | 0.69 nM | – | – | – | – | – | – | 63 °C | – |
| Z16127: IL-1R-I binding Z variant (VDAKYAKEIEIAQMEIFGLPNLTRKQYTAFIRKLLDDPSQSSELLSEAKKLNDSQAPK; Engineered IL-1R-I binding polypeptide) | 4.1 nM | 0.0019 s⁻¹ | 6.7e+06 M⁻¹ s⁻¹ | 0.29 nM | – | – | – | – | – | – | 59 °C | – |
| Z16245: IL-1R-I binding Z variant (VDAKYAKEVETAYFEIFALPNLTRKQYTAFIRKLLDDPSQSSELLSEAKKLNDSQAPK; Engineered IL-1R-I binding polypeptide) | 8.2 nM | 0.0031 s⁻¹ | 2.7e+06 M⁻¹ s⁻¹ | 1.2 nM | – | – | – | – | – | – | 63 °C | – |
| Z16681: IL-1R-I binding Z variant (VDAKYAKEVEYAYYEIFKLPNLTRKQYTAFIRKLLDDPSQSSELLSEAKKLNDSQAPK; Engineered IL-1R-I binding polypeptide) | 20.1 nM | 0.005 s⁻¹ | 3.6e+06 M⁻¹ s⁻¹ | 1.4 nM | – | – | – | – | – | – | 68 °C | – |
| Z17280: IL-1R-I binding Z variant (VDAKYAKEVEQAYWEIYALPNLTRKQYTAFIRKLLDDPSQSSELLSEAKKLNDSQAPK; Engineered IL-1R-I binding polypeptide) | 5.4 nM | 0.0053 s⁻¹ | 2.4e+06 M⁻¹ s⁻¹ | 2.2 nM | – | – | – | – | – | – | 62 °C | – |
| Z18831: IL-1R-I binding Z variant (VDAKYAKEIEEVQMEIFYLPNLTRRQYTAFIRKLLDDPSQSSELLSEAKKLNDSQAPK; Engineered IL-1R-I binding polypeptide) | – | – | – | – | 0.4 nM | 0.0053 s⁻¹ | 4e+07 M⁻¹ s⁻¹ | 0.13 nM | – | – | – | 58 °C |
| Z18846: IL-1R-I binding Z variant (VDAKYAKEIEEIQMEIFHLPNLTRRQYTAFIRKLLDDPSQSSELLSEAKKLNDSQAPK; Engineered IL-1R-I binding polypeptide) | – | – | – | – | 0.2 nM | 0.0051 s⁻¹ | 4.7e+07 M⁻¹ s⁻¹ | 0.11 nM | – | – | – | 60 °C |
| Z18874: IL-1R-I binding Z variant (VDAKYAKELEAIQMEIFHLPNLTRRQYTAFIRKLLDDPSQSSELLSEAKKLNDSQAPK; Engineered IL-1R-I binding polypeptide) | – | – | – | – | 0.3 nM | 0.0052 s⁻¹ | 4.9e+07 M⁻¹ s⁻¹ | 0.11 nM | – | – | – | 61 °C |

More lines, in order of falling IC50 [2, 4], values ahead:

| IC50 [2, 4] | koff [3, 5] | kon [3, 5] | Kd [3, 6] | IC50 [2, 7] | koff [3, 8] | kon [3, 8] | Kd [3, 9] | IC50 ([2]; His6-tagged, TF-1 cell assay, comparison variants (Example 9)) | Kd ([3]; His6-tagged, 48, 12, 3 and 0.75 nM, comparison variants (Example 9), read-out: KD to human IL-1R-I) | Substance | Melting temperatures (Tm) ([1]; Table 13) | Melting temperatures (Tm) ([1]; Table 21) |
| --- | --- | --- | --- | --- | --- | --- | --- | --- | --- | --- | --- | --- |
| 3.9 nM | 0.0016 s⁻¹ | 3e+06 M⁻¹ s⁻¹ | 0.52 nM | – | – | – | – | – | – | Z16341: IL-1R-I binding Z variant (VDAKYAKELEAAQMEIFALPNLTRRQYTAFIRKLLDDPSQSSELLSEAKKLNDSQAPK; Engineered IL-1R-I binding polypeptide) | 59 °C | – |
| 3.8 nM | 0.0015 s⁻¹ | 5.3e+06 M⁻¹ s⁻¹ | 0.29 nM | – | – | – | – | – | – | Z16023: IL-1R-I binding Z variant (VDAKYAKEVEEAQMEIFALPNLTRKQYTAFIRKLLDDPSQSSELLSEAKKLNDSQAPK; Engineered IL-1R-I binding polypeptide) | 60 °C | – |
| 3.4 nM | 0.0015 s⁻¹ | 3.1e+06 M⁻¹ s⁻¹ | 0.48 nM | – | – | – | – | – | – | Z16097: IL-1R-I binding Z variant (VDAKYAKETERAQMEIFSLPNLTRKQYTAFIRKLLDDPSQSSELLSEAKKLNDSQAPK; Engineered IL-1R-I binding polypeptide) | 56 °C | – |
| 3.3 nM | 0.0014 s⁻¹ | 5.6e+06 M⁻¹ s⁻¹ | 0.25 nM | – | – | – | – | – | – | Z16093: IL-1R-I binding Z variant (VDAKYAKETEEAQMEIFALPNLTRKQYTAFIRKLFDDPSQSSELLSEAKKLNDSQAPK; Engineered IL-1R-I binding polypeptide) | 52 °C | – |
| 3.1 nM | 0.0011 s⁻¹ | 2.1e+06 M⁻¹ s⁻¹ | 0.54 nM | – | – | – | – | – | – | Z16377: IL-1R-I binding Z variant (VDAKYAKETERAQMEIFYLPNLTRKQYTAFIRKLLDDPSQSSELLSEAKKLNDSQAPK; Engineered IL-1R-I binding polypeptide) | 52 °C | – |
| 2.9 nM | 0.002 s⁻¹ | 4.3e+06 M⁻¹ s⁻¹ | 0.46 nM | – | – | – | – | – | – | Z15961: IL-1R-I binding Z variant (VDAKYAKEVETAQMEIFALPNLTRKQYTAFIRKLFDDPSQSSELLSEAKKLNDSQAPK; Engineered IL-1R-I binding polypeptide) | 59 °C | – |
| 2.5 nM | 0.0011 s⁻¹ | 2.5e+06 M⁻¹ s⁻¹ | 0.44 nM | – | – | – | – | – | – | Z16043: IL-1R-I binding Z variant (VDAKYAKETEEAQMEIFRLPNLTRRQYTAFIRKLLDDPSQSSELLSEAKKLNDSQAPK; Engineered IL-1R-I binding polypeptide) | 54 °C | – |
| 1.7 nM | 0.0013 s⁻¹ | 6.9e+06 M⁻¹ s⁻¹ | 0.19 nM | – | – | – | – | 3.3 nM | 0.51 nM | Z16065: IL-1R-I binding Z variant (VDAKYAKEVEEAQMEIFALPNLTRRQYTAFIRKLLDDPSQSSELLSEAKKLNDSQAPK; Engineered IL-1R-I binding polypeptide) | 59 °C | – |
| 0.76 nM | 0.001 s⁻¹ | 2.6e+06 M⁻¹ s⁻¹ | 0.39 nM | – | – | – | – | – | – | Z16169: IL-1R-I binding Z variant (VDAKYAKETEEAQMEIFYLPNLTRRQYTAFIRKLLDDPSQSSELLSEAKKLNDSQAPK; Engineered IL-1R-I binding polypeptide) | 48 °C | – |
